The list shows a part of the results.
tested on: PfSIP2 AP2 domain 1 (GST-tagged); assay: gcPBM binding intensity (ln(normalized median fluorescence intensity)); higher = stronger DNA binding
In short: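 The highest Masliner-normalised natural-log median intensity across replicate spots of either probe orientation is reported as binding intensity. GST-tagged P. falciparum DNA-binding domains expressed in E. coli were applied for 1 h to an Agilent 4 × 180k array of primer-extended double-stranded 36-bp intergenic genomic probes plus negative controls, and bound protein was detected with Alexa488 anti-GST antibody and scanned at 488 nm.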

| Sequence | gcPBM binding intensity (ln) |
| --- | --- |
| TGTGTATATATGCTGGTGCAACTTTAAAAAATAATC | 10.1 |
| AAATTATATACCACAGTGCAAAAGGCAGGTATACGT | 7.67 |
| GTAGAGAAAAAAATGTGGACACAAAAAATAAAAAGG [XGTACX_site4058] | 7.57 |
| TTTTTTTTTTTTTGCACACACATATATAAATATATA [CACACA_site3949] | 7.17 |
| TATATTGCAAAAAGTACACACATAAATAAATACATA [CACACA_site6589] | 7.23 |
| TATTCTAGAATTTTAACACACAAGAATATAAACTTT [CACACA_site6757] | 6.73 |
| ATTTTTAAATACAGTACACACATGGGTTTAAATTAT [CACACA_site2884] | 7 |
| GGTTATATGATAGGATGTACAATTAAAAGTAAATAT [XGTACX_site5083] | 7.25 |
| TCCTATAAACAAATTTGTACATATAAGAATATATTC [XGTACX_site3892] | 7.08 |
| TTATTATTCTTAAGGATATAACAAAAAAGAAAAATT [CACACA_negctrl_site1402] | 6.87 |
| TATTTATATTTATATACACACATATATACCTATATA [CACACA_site7820] | 6.95 |
| GATTATTTTAGAAGTACACACATTTATATATAATAA [CACACA_site5429] | 7.38 |
| TAAAATATAATGATCACACATATAAACAAGTGGGTA [CACACA_site4651] | 6.86 |
| GCCGCACCCAGATACGCACACAAGAAAAAAATATTC [CACACA_site3456] | 11.1 |
| TATGGATAAATAAATACACACATAAATTTAAATATA [CACACA_site1282] | 6.94 |
| TATAAACGCACCTACACACACAACGTAAATGCATTG [CACACA_site7120] | 10.6 |
| TGAACATTATAGAAAAGTACTTAGTTTTTAAAAAGA [XGTACX_site6864] | 7 |
| TATTCAAAACGGTATTGTACAAATTTTATAATTTAA [XGTACX_site6928] | 6.78 |
| AATTTAATTGTGAGAGTGCGTACTGCTCCACATATA | 7.67 |
| TATATATATAAATACACACACACAAAAAAAAAAAAA [CACACA_site4930] | 7.74 |
| ATGTGTTTGTATATATGTACATATTTATGTTATTTC [XGTACX_site6960] | 7.42 |
| AAAAAAAAAAAAAAAAAAAAAAAAAAATGAGATACA [GTGCAC_negctrl_site160] | 8.62 |
| TTTTGATATATGAATATTAAGTTATATAATATTTTA [TGCATGCA_negctrl_site39] | 6.66 |

| Sequence | gcPBM binding intensity (ln) |
| --- | --- |
| AAAAGGATATATGAAAGTACAAAGGTATAGTATATT [XGTACX_site7385] | 7.06 |
| TACAGTAAAAATAGTTGTACTTGTTTATTTCTTCTT [XGTACX_site7674] | 6.8 |
| ATCTTATCATTTTAAAGTACATAATTAATTCTTTTT [XGTACX_site3999] | 7.27 |
| TATAACAAATAAAAATGTACATATATATAATATATA [XGTACX_site6173] | 7.31 |
| ATAATACCAGAATAGATTTAAATGAATATTTTATTT [CACACA_negctrl_site476] | 6.75 |
| ATGATATATTTAATAGTGCACTAATTAAAATTATTA [GTGCAC_site9418] | 11 |
| TAGTTAGCCCAAGGGGTGCTAATTACTATCTAAATA | 9.4 |
| CATACATATAAACACACACACACACCCACCCACAAA [CACACA_site8059] | 7.18 |
| AACACCAATTCATATGCACACACATCTGCATATTAT [CACACA_site8523] | 7.29 |
| TTTATAAATATTCTCACACACTTTTTATTTTAACAA [CACACA_site6454] | 6.93 |
| TATAGAAGCAAATTATGTACACAATATGGAAAATCA [XGTACX_site3345] | 7.14 |
| GTCGAGGATATATAAAGTACATATATATATATGATA [XGTACX_site1128] | 7.2 |
| TAATGTATCTAAAATTGTACAAATATAAATATAAAT [XGTACX_site2764] | 7.04 |
| CACTAAATAAGGAAAGTGCATAAAATAAAGGTTATA [GTGCAC_site9793] | 8.18 |
| TAGTTACCTTAATATTGTACTTTTCTTTCATATATG [XGTACX_site1309] | 7.02 |
| GTGTCAAATTTTATAACACACAAAAGGTTATATAAG [CACACA_site7839] | 6.93 |
| ATAGTTTCTGGTAGCTGTACGAGTCGTAGAGTGCAG [XGTACX_site2022] | 8.33 |
| TACAGTTTTTCTTTGAATTTATCAAGTTTTTTTCCC [XGTACX_negctrl_site60] | 6.71 |
| ATTTAAAAAATATATTGTACATATTTTATTATGTTT [XGTACX_site2984] | 6.85 |
| AAAAAAAAATTGTGTACACATAATTATATCATATGT [CACACA_site4500] | 7.01 |
| ATGGATAATAAGTTTACACACAAAAAAAAAGAAAAA [CACACA_site861] | 6.9 |
| ATAAGAATCATATTTAAACACACATACATATATATA [CACACA_site9106] | 7.5 |
| ATTAAATAAACCATTACACACTTTTATGTTTTGAAA [CACACA_site1143] | 7.01 |

| Sequence | gcPBM binding intensity (ln) |
| --- | --- |
| TTTTTATTGGTGAATACACACGTATATATATATTAT [CACACA_site8756] | 7.17 |
| AAAAAAAAAAAATACACACACATAAAAAAAAAAATA [CACACA_site1858] | 7.15 |
| ATTATATTAACAATGACATGCAATTCTTAATCCTTA [TGCATGCA_site648] | 6.88 |
| CACAAACAAAAACACACACACACACCGACAAAAATG [CACACA_site5362] | 7.03 |
| AGAAAGAAGATATATACACACAAAAAAAGATATATA [CACACA_site6779] | 6.89 |
| AAAAGAAGATAATACAGTACAGAATAATATAAAATA [XGTACX_site5962] | 6.91 |
| TATAAATATTTATACACACACACATTAATACCTATA [CACACA_site7604] | 7.19 |
| TTCTTTCTAGAATATTGTACATATATTGTTATTATA [XGTACX_site8425] | 7.11 |
| AAATAAAATAAATAATATAAAATAATATATAAAAAA [CACACA_negctrl_site1777] | 6.67 |
| TTTTGTTAAAAAGATGTATATTTTATAAATATTTAT [CACACA_negctrl_site101] | 6.81 |
| TAAAGAGAGACATCAACACACATACGTATGTATAGA [CACACA_site4896] | 6.72 |
| AATATATTGTTTCCTGATATTAAATTCAATTTAATG [GTGCAC_negctrl_site22] | 6.91 |
| ATTTACCTATATATTTGTACTTACATAATGCTACCT [XGTACX_site2693] | 7.09 |
| TAAAAAAAAATATATAAACACACATATTTATATACA [CACACA_site8469] | 6.68 |
| CCAATGTTTTCTTGTGTACACATCATTAAAGAAAAA [CACACA_site5300] | 7.96 |
| ATTCTATATGAAAAATGTACAAATAAAAATTCTAAG [XGTACX_site8900] | 7.03 |
| CACGCATACAGACACACACACACACCGATATATATA [CACACA_site8113] | 7.36 |
| CATGAAAATATTATGTGTACTTAATGCACATTCAAA [XGTACX_site1952] | 7.35 |
| AAAAAAAAACAAAAAAGTACAAAATAAAAATACGTT [XGTACX_site4566] | 6.97 |
| CTCTTCATATATAATTGTACACACAAAAACGACATT [XGTACX_site4287] | 7.73 |
| TATATATATTTTGGCTGTACATCAGCGTATATTTTT [XGTACX_site3233] | 6.98 |
| AATAAATATATACATTGTACATATATAATATATATA [XGTACX_site1458] | 7.44 |
| TAAATTATAATATGCACACAAAATGTTATATTAAAA [CACACA_site376] | 7.01 |

| Sequence | gcPBM binding intensity (ln) |
| --- | --- |
| CCTATCCATGCATATACACACATATCTATTTATATA [CACACA_site6886] | 7.8 |
| TACAAATATATATGCACACACATATACATACAGATA [CACACA_site5238] | 7.27 |
| CATATATACGCATACACACACACACCCACACCCACA [CACACA_site1725] | 7.35 |
| TGATGAAAATCTACATGAATGTTTTTATATCTATAT [GTGCAC_negctrl_site139] | 6.73 |
| TATTTATACCTATACACACACACACGGATATTTATA [CACACA_site7123] | 7.01 |
| GATAAAATCACTGGTGCATGTAGATATATAATATTA [TGCATGCA_site589] | 10.5 |
| ATATGCTTATTGTAAAGTACATTATTATTTTTCCTA [XGTACX_site5479] | 6.83 |
| AATTAACAAAAACACACACACACACCGACAAAAAAA [CACACA_site4444] | 7.3 |
| ATGAATAAATAAGACACACACGAAAATAAGTAAAAA [CACACA_site4216] | 7.09 |
| TATTTTGATTATTCAGTGTATAAATATATATATATA [CACACA_negctrl_site545] | 8.66 |
| AACAGGTCATAATTTACACACTATATATTTTATTAT [CACACA_site670] | 7.02 |
| AGAAAACATATGTTTTGTACTTAAGAAAAAAAAAAA [XGTACX_site4231] | 6.88 |
| TAACATATGGGACACACATGCAACTGTTATATGTCC [TGCATGCA_site959] | 6.82 |
| ATCTATATTCATAATACACACATTCTGTAGCATTAT [CACACA_site7058] | 7.03 |
| TGATTAATTTTTAAATGTACTTAAAAATATACTTAT [XGTACX_site2872] | 7.09 |
| TATATCATATAAAACCGTACATACATACTTAATTGT [XGTACX_site6822] | 7.06 |
| AAAAATAAATAAATATGTACATATATACATATATAT [XGTACX_site5892] | 7.16 |
| AAAAAAAAATTAAAATGTACACATAAAAAAAAAAAA [XGTACX_site794] | 6.91 |
| TTTTATATGTTATATACACACATATAAATAAATATA [CACACA_site7418] | 6.92 |
| TCCTTATTTCATATTTTTAAATAATACAAAAAAAAA [CACACA_negctrl_site773] | 7.14 |
